# Test results from the RNAGym collection of RNA variant scans (doi:10.7554/elife.90254).
# The source gives no read counts; variants with many changes may rest on few reads.
# B1: OR4K15 (parent)
# chain: GUUAACGGUCAUAGGCCAUGGAAACUAGGAGCACCAUUUCGCUGCCAGUGAAGAAAUGAACAAAGAAAAUCUGGGCCAGGCAGGCAUCAAAAGAAAUAGUCUUGCGCUCAACCAGAAAGUCUGUAAUCAUUUUAAGGGUA
# Variants of: B1
# Test: self-cleavage, relative activity (ratio to wild type); higher = more cleavage; in vitro, sequencing; the parent is a self-cleaving ribozyme
row,Variant,self-cleavage
1,A4G A18C A90G A95G,1.95
2,A52G A82U A110G U131C,0.02
3,A23U A33G A51G A59G A86G A111G,0.02
4,G14A U102C U132A A135U,2.37
5,C10A A27G A117G,0.89
6,A5C G31A U70C,1
7,A96U U108C A125G,0
8,U38C A67G U97C,1.32
9,A5G A56G A126G,0.74
10,U26A A27G U49A A91U A114G,0.1
11,A22G A24G A51U U72C A94G A111G,0.08
